Experimental data reported in article PMC11009252.
No constants are given. Whether binding was seen depends on the method and setting. Binding seen in cells or lysates may run through a third protein. Some results given as binding are weak or reduced against the parent protein; the word gives no strength. For part of these data: Sequences can lack the tags named with a protein.

Legend:
[1] = target: GST-EGFR-CT-mutant (MT, L1042/1063 mutated to F) fusion protein (UniProt P00533); assay: pull-down; purified GST or GST fusion proteins on beads incubated with 1 mL HEK293 cell lysate, 4 °C, 3 h; washes in 10 mM HEPES, 50 mM NaCl, 5 mM EDTA, 0.1% Tween 20; western blot; only the target purified
[2] = target: GST-EGFR-Carboxyl terminal (CT) wild type fusion protein (aa 1022-1186) (UniProt P00533); assay: as above
[3] = target: Myc-EGFR (UniProt P00533); assay: co-IP; MDA-MB-231 cells stably overexpressing Myc-EGFR, co-transfected with PDZK1-WT or PDZK1-MT_S2,3
[4] = target: Myc-c-Cbl (UniProt P22681); assay: co-IP; MDA-MB-231 cells stably overexpressing c-Cbl, transfected with PDZK1-WT, PDZK1-MT_S1, PDZK1-MT_S1,4 or PDZK1-MT_S2,3
[5] = target: Myc-EGFR (UniProt P00533); assay: co-IP; MDA-MB-231 cells transfected with PDZK1-Flag and Myc-EGFR; anti-Myc antibody coupled to affinity gel
[6] = target: EGFR, endogenous in MDA-MB-231 cells (human (endogenous in MDA-MB-231)) (UniProt P00533); assay: co-IP; endogenous proteins of MDA-MB-231 cells; anti-EGFR antibody (Fig. 1F) or anti-PDZK1 antibody (Fig. 1G) coupled to affinity gel; IgG as control

B1: PDZ domain containing 1 (PDZK1), in lysates of HEK293 cells (protein, UniProt Q5T2W1 1-519)
chain: MTSTFNPRECKLSKQEGQNYGFFLRIEKDTEGHLVRVVEKCSPAEKAGLQDGDRVLRINGVFVDKEEHMQVVDLVRKSGNSVTLLVLDGDSYEKAVKTRVDLKELGQSQKEQGLSDNILSPVMNGGVQTWTQPRLCYLVKEGGSYGFSLKTVQGKKGVYMTDITPQGVAMRAGVLADDHLIEVNGENVEDASHEEVVEKVKKSGSRVMFLLVDKETDKRHVEQKIQFKRETASLKLLPHQPRIVEMKKGSNGYGFYLRAGSEQKGQIIKDIDSGSPAEEAGLKNNDLVVAVNGESVETLDHDSVVEMIRKGGDQTSLLVVDKETDNMYRLAHFSPFLYYQSQELPNGSVKEAPAPTPTSLEVSSPPDTTEEVDHKPKLCRLAKGENGYGFHLNAIRGLPGSFIKEVQKGGPADLAGLEDEDVIIEVNGVNVLDEPYEKVVDRIQSSGKNVTLLVCGKKAYDYFQAKKIPIVSSLADPLDTPPDSKEGIVVESNHDSHMAKERAHSTASHSSSNSEDTEM
- binding [1]: no binding
- binding [2]: binds

B2: PDZK1-Flag (PDZK1-WT) (protein, UniProt Q5T2W1 1-519)
chain: MTSTFNPRECKLSKQEGQNYGFFLRIEKDTEGHLVRVVEKCSPAEKAGLQDGDRVLRINGVFVDKEEHMQVVDLVRKSGNSVTLLVLDGDSYEKAVKTRVDLKELGQSQKEQGLSDNILSPVMNGGVQTWTQPRLCYLVKEGGSYGFSLKTVQGKKGVYMTDITPQGVAMRAGVLADDHLIEVNGENVEDASHEEVVEKVKKSGSRVMFLLVDKETDKRHVEQKIQFKRETASLKLLPHQPRIVEMKKGSNGYGFYLRAGSEQKGQIIKDIDSGSPAEEAGLKNNDLVVAVNGESVETLDHDSVVEMIRKGGDQTSLLVVDKETDNMYRLAHFSPFLYYQSQELPNGSVKEAPAPTPTSLEVSSPPDTTEEVDHKPKLCRLAKGENGYGFHLNAIRGLPGSFIKEVQKGGPADLAGLEDEDVIIEVNGVNVLDEPYEKVVDRIQSSGKNVTLLVCGKKAYDYFQAKKIPIVSSLADPLDTPPDSKEGIVVESNHDSHMAKERAHSTASHSSSNSEDTEM
- binding [3]: binds
- binding [4]: binds
- binding [5]: binds

B3: PDZK1, endogenous in MDA-MB-231 cells (protein, UniProt Q5T2W1 1-519)
chain: MTSTFNPRECKLSKQEGQNYGFFLRIEKDTEGHLVRVVEKCSPAEKAGLQDGDRVLRINGVFVDKEEHMQVVDLVRKSGNSVTLLVLDGDSYEKAVKTRVDLKELGQSQKEQGLSDNILSPVMNGGVQTWTQPRLCYLVKEGGSYGFSLKTVQGKKGVYMTDITPQGVAMRAGVLADDHLIEVNGENVEDASHEEVVEKVKKSGSRVMFLLVDKETDKRHVEQKIQFKRETASLKLLPHQPRIVEMKKGSNGYGFYLRAGSEQKGQIIKDIDSGSPAEEAGLKNNDLVVAVNGESVETLDHDSVVEMIRKGGDQTSLLVVDKETDNMYRLAHFSPFLYYQSQELPNGSVKEAPAPTPTSLEVSSPPDTTEEVDHKPKLCRLAKGENGYGFHLNAIRGLPGSFIKEVQKGGPADLAGLEDEDVIIEVNGVNVLDEPYEKVVDRIQSSGKNVTLLVCGKKAYDYFQAKKIPIVSSLADPLDTPPDSKEGIVVESNHDSHMAKERAHSTASHSSSNSEDTEM
- binding [6]: binds
